# From paper PMC6707232
# Not every entry of the source has a single result; some have several. This is not the full list of results. The source may hold further records. Some entries list several cross-links; each record is another pair of residues.
# Key:
# Assay in all cases: cross-linking mass spectrometry
# Details in all cases: not determined
# COPS4 = COPS4 (UniProt Q9BT78)
# CUL2 = CUL2 (UniProt Q13617)
# GPS1 = GPS1 (UniProt Q13098)
# Chain of UniProt Q13098 (Q13098 whole entry): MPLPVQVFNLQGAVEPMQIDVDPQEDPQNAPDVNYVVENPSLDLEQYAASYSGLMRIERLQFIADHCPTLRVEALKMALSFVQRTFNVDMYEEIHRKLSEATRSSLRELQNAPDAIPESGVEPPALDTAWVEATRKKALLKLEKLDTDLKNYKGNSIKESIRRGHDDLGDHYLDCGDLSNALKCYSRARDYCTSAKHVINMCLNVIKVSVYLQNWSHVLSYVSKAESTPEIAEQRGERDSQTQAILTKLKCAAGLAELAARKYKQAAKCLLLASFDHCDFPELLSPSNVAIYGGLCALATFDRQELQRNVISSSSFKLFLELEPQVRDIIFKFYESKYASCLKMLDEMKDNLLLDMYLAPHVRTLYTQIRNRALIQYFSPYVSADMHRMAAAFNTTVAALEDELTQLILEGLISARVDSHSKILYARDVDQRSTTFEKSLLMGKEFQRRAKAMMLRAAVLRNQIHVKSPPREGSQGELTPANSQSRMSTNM
# Chain of UniProt Q13617 (Q13617 whole entry): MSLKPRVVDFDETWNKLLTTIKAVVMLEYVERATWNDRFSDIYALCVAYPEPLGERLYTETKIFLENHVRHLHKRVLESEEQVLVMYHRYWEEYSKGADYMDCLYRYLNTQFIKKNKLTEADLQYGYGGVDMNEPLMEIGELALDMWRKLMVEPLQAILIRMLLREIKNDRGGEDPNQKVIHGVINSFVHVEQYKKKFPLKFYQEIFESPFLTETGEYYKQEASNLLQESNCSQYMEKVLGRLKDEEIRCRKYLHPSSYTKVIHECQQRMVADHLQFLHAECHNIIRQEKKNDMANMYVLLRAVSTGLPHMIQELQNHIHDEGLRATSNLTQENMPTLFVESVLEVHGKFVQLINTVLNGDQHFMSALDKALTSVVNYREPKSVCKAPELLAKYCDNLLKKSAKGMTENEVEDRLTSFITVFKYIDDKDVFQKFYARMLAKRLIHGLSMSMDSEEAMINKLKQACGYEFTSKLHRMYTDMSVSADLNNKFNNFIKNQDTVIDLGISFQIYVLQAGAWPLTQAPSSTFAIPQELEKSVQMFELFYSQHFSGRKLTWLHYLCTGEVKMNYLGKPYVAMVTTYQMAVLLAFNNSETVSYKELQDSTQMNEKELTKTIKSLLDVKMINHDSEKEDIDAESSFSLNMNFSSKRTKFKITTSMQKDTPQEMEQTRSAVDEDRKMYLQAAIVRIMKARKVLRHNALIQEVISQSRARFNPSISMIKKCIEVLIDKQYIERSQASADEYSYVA
# Chain of COPS2 (P61201 whole entry): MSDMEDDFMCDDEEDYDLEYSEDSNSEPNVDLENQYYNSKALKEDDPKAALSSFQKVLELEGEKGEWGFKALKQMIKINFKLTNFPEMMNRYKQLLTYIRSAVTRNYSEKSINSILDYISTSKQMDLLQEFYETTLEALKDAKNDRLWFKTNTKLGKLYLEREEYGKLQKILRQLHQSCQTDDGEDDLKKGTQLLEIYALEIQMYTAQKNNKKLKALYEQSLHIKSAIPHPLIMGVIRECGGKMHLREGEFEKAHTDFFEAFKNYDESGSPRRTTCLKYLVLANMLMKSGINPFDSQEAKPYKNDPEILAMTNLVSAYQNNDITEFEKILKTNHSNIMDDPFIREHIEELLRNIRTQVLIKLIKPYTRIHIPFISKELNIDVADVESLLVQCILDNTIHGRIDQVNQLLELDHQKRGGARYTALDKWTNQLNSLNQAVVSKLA
substance,measurement,setting,value
"COPS2, P61201",cross-linked residues,COPS4,K361 - K337 and K376 - K337
same,cross-linked residues,CUL2,K64 - K404 and K157 - K489 and K225 - K462 and K263 - K462
same,cross-linked residues,GPS1,K415 - K438 and K426 - K438
